Data from article PMC4336329 (PLoS ONE, 2015).
About 14,000 (4.5%) of roughly 310,000 compounds showed an effect of 50% or more. Effects have a minus sign here. Some of the results follow.

Molecular target: human ether-à-go-go-related gene (hERG) potassium channel (human, UniProt Q12809)
Assay: primary screen, population patch clamp on CHO cells stably expressing hERG
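Further: peak tail current of the secondary pulse compared with the same well before compound.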

Chain of human ether-à-go-go-related gene (hERG) potassium channel (Q12809 whole entry, looked up): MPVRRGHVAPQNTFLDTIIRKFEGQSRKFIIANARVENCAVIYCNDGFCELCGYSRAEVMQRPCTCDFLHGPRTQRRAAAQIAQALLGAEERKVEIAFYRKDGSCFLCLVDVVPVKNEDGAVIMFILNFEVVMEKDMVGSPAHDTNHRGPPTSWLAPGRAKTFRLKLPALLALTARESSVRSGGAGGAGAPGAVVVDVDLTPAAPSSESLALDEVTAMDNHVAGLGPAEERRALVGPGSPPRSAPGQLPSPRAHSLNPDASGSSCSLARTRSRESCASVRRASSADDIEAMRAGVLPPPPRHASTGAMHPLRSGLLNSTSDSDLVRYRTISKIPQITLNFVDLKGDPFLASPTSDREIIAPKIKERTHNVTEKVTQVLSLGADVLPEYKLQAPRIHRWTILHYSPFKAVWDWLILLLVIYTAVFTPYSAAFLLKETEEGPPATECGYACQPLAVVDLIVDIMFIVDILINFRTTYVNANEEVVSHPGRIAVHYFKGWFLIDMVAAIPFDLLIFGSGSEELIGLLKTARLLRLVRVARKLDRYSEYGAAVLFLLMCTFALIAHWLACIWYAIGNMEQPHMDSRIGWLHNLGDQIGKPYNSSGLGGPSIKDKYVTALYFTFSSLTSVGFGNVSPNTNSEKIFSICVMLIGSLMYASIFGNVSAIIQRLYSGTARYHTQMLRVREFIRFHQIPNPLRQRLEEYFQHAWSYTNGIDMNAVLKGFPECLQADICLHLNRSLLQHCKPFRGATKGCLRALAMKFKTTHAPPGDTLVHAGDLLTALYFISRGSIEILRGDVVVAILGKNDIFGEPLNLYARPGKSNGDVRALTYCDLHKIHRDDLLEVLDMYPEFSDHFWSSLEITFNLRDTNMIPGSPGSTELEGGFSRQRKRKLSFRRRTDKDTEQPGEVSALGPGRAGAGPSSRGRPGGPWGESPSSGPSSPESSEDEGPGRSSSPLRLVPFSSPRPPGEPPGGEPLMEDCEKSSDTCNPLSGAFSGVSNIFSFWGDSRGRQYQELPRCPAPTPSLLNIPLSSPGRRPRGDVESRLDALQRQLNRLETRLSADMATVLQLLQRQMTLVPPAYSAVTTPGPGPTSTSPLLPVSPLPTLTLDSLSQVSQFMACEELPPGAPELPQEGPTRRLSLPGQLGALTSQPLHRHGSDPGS

Compound | hERG current change (%, negative = inhibition) at 10uM
CCCN1CCc2nc(SCC(=O)Nc3ccc(C)c(Cl)c3)[nH]c(=O)c2C1 | -0.316%
CSc1ccccc1C(=O)NC1CCCN(Cc2ccccc2F)C1 (stereo not drawn) | -11.5%
COCCSc1ccccc1C(=O)Nc1cc(C)on1 | -5.92%
COc1ccccc1-c1n[nH]c(=S)n1N | 16.3%
O=C(O)CCC(=O)N1CCc2cc(S(=O)(=O)N3CCN(c4ccc(F)cc4)CC3)ccc21 | 12.5%
O=S(=O)(N/N=C/c1ccc(Cl)cc1)c1ccc(Cc2ncc(C(F)(F)F)cc2Cl)s1 | 15.4%
CC[n+]1ccc(/C=C2\Sc3ccccc3N2CCCS(=O)(=O)[O-])c2ccccc21 | 21.2%
CCCCNC(=O)CCCCCNS(=O)(=O)c1ccc(Br)cc1 | -49.6%
CCOC(=O)N1CCC(Nc2cccc(SC)c2)CC1 | 4.75%
C/C(=N\Nc1cc(Cl)nc(C)n1)c1ccc(C)cc1 | 9.02%
O=C(CN(C(=O)CNS(=O)(=O)c1ccccc1)c1ccc2c(c1)OCCO2)NC1CCCCC1 | -10.2%
CCCCn1c(N)c(N(CCC(C)C)C(=O)COC(=O)c2ccccc2)c(=O)[nH]c1=O | 3.79%
O=C(CSc1ncnc2sccc12)Nc1ccccc1 | 21.2%
Cc1cccnc1NC(=O)c1ccc2nc(N)sc2c1 | 6.12%
C=CCN1C(=O)c2ccccc2Sc2ccc(C(=O)NC(C)C)cc21 | 7.49%
CCOC(=O)C[C@H]1c2cc(F)ccc2S(=O)(=O)N1C1CCCC1 | -5.43%
O=C(NCc1ccccn1)C1CCCCC1 | 13.9%
CN(c1ccc(C(=O)N2CCN(c3ccc(F)cc3)CC2)cc1)S(C)(=O)=O | -25.4%
CC12CN3CCN(CC(C3)C1O)C2 (stereo not drawn) | 6.44%
CCCCn1c(=O)n(CC(=O)Nc2c(CC)cccc2CC)c(=O)c2c1nc(CO)n2CCC | -4.92%
COc1ccc(C(=O)c2ccc(OC)c(Br)c2)cc1Br | 7.73%
COc1cccc(C2C(C#N)=C(N)Oc3cc(N)ccc32)c1OC (stereo not drawn) | -6.99%

Compound | hERG current change (%, negative = inhibition) at 10uM
CCOC(=O)c1sc(NC(=O)CSc2nnc(C(C)C)n2CC)nc1C | -10%
COc1cc(C2SCC(=O)N2CCN2CCCCC2)ccc1O.Cl (stereo not drawn) | 30.1%
Cc1ccc(OCC(=O)N(Cc2ccco2)C2CCS(=O)(=O)C2)cc1 (stereo not drawn) | -13%
c1ccc2[nH]c(CCNC3CCCCC3)nc2c1 | -14.8%
NC(=O)CC(NC(=O)Cc1cccc2ccccc12)c1ccc(NCCc2ccc(F)cc2)c([N+](=O)[O-])c1 (stereo not drawn) | 4.1%
COc1ccc(Cl)cc1NC(=O)NC(C)c1ccncc1 (stereo not drawn) | -14.7%
O=C(NNC(=S)NC(=O)c1ccccc1)c1cccc([N+](=O)[O-])c1 | 22.8%
NC(=O)CSc1nnc(-c2ccco2)n1-c1ccccc1 | 16.1%
Cc1cccc2cc(CN(CC(C)C)S(=O)(=O)c3ccccc3)c(=O)[nH]c12 | 16.5%
Cc1ccc2cc(CN(CC3CCCO3)S(=O)(=O)c3ccc4c(c3)OCCO4)c(=O)[nH]c2c1C (stereo not drawn) | 6.95%
Cc1ccc(SCC(=O)Nc2ccccc2C(=O)O)cc1 | -0.936%
Cc1cc(C)c(NC(=O)c2cccc3c2C(=O)N(C2CCCCC2)C3)c(C)c1 | -11%
O=C(CSc1nnc(SCc2ccccc2)s1)N/N=C/c1c(Cl)cccc1Cl | 2.38%
C=C(C)CC(NCc1ccco1)c1ccc(OC)cc1 (stereo not drawn) | -3.88%
O=C(c1ccccc1)c1ccccc1C(=O)N1CCOCC1 | 16.7%
Cc1ccccc1-c1nc(CSc2nc3c(c(=O)[nH]2)CCC3)c(C)o1 | 17.3%
CCN(CC)C(=O)CSc1nc2ccsc2c(=O)n1CCCC(=O)NCCc1ccc(S(N)(=O)=O)cc1 | 24.7%
Br.C=CCN1C(c2ccc(Br)cc2)=CS/C1=C(/C#N)c1nnc(N2CCOCC2)n1-c1ccccc1 | -13.4%
CCCC(=O)N1CCN(c2ccc(NC(=O)c3ccc(OCC)c([N+](=O)[O-])c3)cc2)CC1 | 7.88%
Cc1cc(=O)[nH]c(N/N=C/c2ccc(OC(=O)c3cccnc3)cc2)n1 | 2.07%
CSC(=NC#N)N1CCN(c2ccccn2)CC1 | -5.37%
CC1Cc2ccccc2N1C(=O)Cn1nc(C(=O)O)c2ccccc2c1=O (stereo not drawn) | -28.9%

Compound | hERG current change (%, negative = inhibition) at 10uM
COC(=O)c1cc2n(n1)CCN(Cc1ccccc1F)C2=O | 8.43%
O=C1CC(=O)N(c2ccc(Cl)cc2)C(=O)N1 | 25.3%
CC(=O)Nc1nc2cccc([N+](=O)[O-])c2s1 | 16.1%
COc1ccc(Cl)cc1NC(=S)N1CCN(S(C)(=O)=O)CC1 | -9.89%
O=C(COC(=O)C1=Cc2ccccc2OC1)NCc1ccccc1 | 2.43%
Cc1ccccc1NC(=O)C1CCC(=O)N1 (stereo not drawn) | -0.504%
COc1ccc(C2(C(=O)Nc3ccc(C)cc3)CCOCC2)cc1 | 11.3%
COc1ccc(S(=O)(=O)N2CCC(C(=O)NCCCN3CCOCC3)CC2)cc1 | 1.37%
CC(C)CN(C(=O)c1cccc(S(=O)(=O)N2CCN(c3ccc(F)cc3)CC2)c1)C1CCS(=O)(=O)C1 (stereo not drawn) | -16%
Cc1ccc(Sc2cc(Cl)nc(N)n2)cc1 | 17.8%
OCC[C@H]1C[C@H](O)[C@@H](O)[C@@]2(CCCCO2)O1 | 17.5%
O=C(Nc1cccc(-c2nc3ncccc3o2)c1)c1ccccc1 | -9.36%
COc1ccc(N2CCN(S(=O)(=O)c3ccc(OC)c(C(=O)N4CCCC4)c3)CC2)cc1 | -3.54%
O=C(CSc1ccccn1)Nc1ccc2ccccc2c1 | -10.1%
CCCN1CCCc2cc(CN(CCCN3CCOCC3)C(=O)Nc3ccc(OCC)cc3)ccc21 | -34.2%
COc1cccc(NC(=O)C(Sc2nc3ccccc3c(=O)n2CC(C)C)c2ccccc2)c1 (stereo not drawn) | 11.8%
O=C(Cn1nc(Cc2cccnc2)c2ccccc2c1=O)Nc1ccccc1F | -19.6%
COC(=O)CNC(=O)c1cc(OC)cc(OC)c1 | 9.58%
COc1ccc(N(C(=O)c2ccccc2)S(=O)(=O)c2cccs2)cc1 | 21.6%
CSCC[C@H](NC(=O)OCc1ccccc1)C(=O)O | -2.24%
O=C(NCCc1ccccc1)c1c[nH]c2c(F)cccc2c1=O | 17%
CCCn1c(N)c(N(CCOC)C(=O)c2cc3c(s2)CCCCC3)c(=O)[nH]c1=O | 14.4%

Compound | hERG current change (%, negative = inhibition) at 10uM
O=S(=O)(c1cccnc1)N1CCn2cccc2C1c1ccccc1F (stereo not drawn) | -5.05%
COc1ccc(N=Nc2nc3cc(Br)c(Br)cc3n2C)c(OC)c1 | -2.96%
CCN(CC)S(=O)(=O)c1cccc(NC(=O)COC(=O)c2cc(=O)c3ccccc3o2)c1 | 0.684%
Cc1cccc(C)c1NC(=O)CNC(=O)c1ccc(COc2ccccc2)cc1 | 18.2%
C/C(=N/NC(=O)c1ccc(Br)o1)c1cccc(NC(=O)c2ccc(C)o2)c1 | -67.6%
Cc1ccc(SCc2c(C(=O)N/N=C/c3ccncc3)nnn2-c2nonc2N)cc1 | 6.88%
Cc1cc(C)n(-c2ccc(C(=O)Nc3cc(C(F)(F)F)ccc3N3CCOCC3)cc2)n1 | -0.946%
COc1ccc(N2CCN(C(=O)CCNC(=O)c3ccc(C(C)(C)C)cc3)CC2)cc1 | -27.9%
Cc1ccc(-n2c(=O)c3sccc3n(CC(=O)NCc3ccco3)c2=O)cc1 | 3.57%
CCCCn1c(SCC(=O)NC2CC2)nc2ccccc2c1=O | -4.62%
CCCC(=O)Nc1ccc(C(=O)N/N=C/c2ccc([N+](=O)[O-])o2)cc1 | -20.9%
CCN(CCO)c1nc(NCc2ccccc2)c2cnn(C)c2n1 | -7.62%
COC(=O)c1nn(-c2ccc3c(c2)CCN3C(C)=O)cc1O | 7.13%
Cc1ccc(S(=O)(=O)CC(=O)N2CCCCCC2)cc1 | 13.6%
C#CCOCCOCCOCCNc1nc(N2CCOCC2)nc(N2CCN(C(=O)[C@H]([C@@H](C)CC)n3cc([C@@H](N)Cc4ccc(O)cc4)nn3)CC2)n1.Cl | 1.85%
C=CCSc1nc2c(c(=O)[nH]1)C(C(C)C)C(C#N)=C(N)O2 (stereo not drawn) | 3.05%
COc1cc(C(=O)NCC(=O)OCCN2C(=O)c3ccccc3C2=O)cc(OC)c1OC | 4.2%
CCn1c(SCC(=O)NCc2ccccc2)nnc1C(CO)NC(=O)c1ccccc1 (stereo not drawn) | 13.9%
CCOC(=O)c1c(-c2ccc(C)o2)csc1NC(=S)NC(=O)N(C)C | -2.36%
CCOCCCNC(=O)COC(=O)/C=C/c1ccc(S(=O)(=O)N2CCc3ccccc32)cc1 | 13.8%
CCOC(=O)C1=C(COC(=O)/C=C/c2cc(OC)c(OC)c(OC)c2)NC(=O)NC1C (stereo not drawn) | 20.1%
